Data: article PMC4336329 (PLoS ONE, 2015)
Among all 310,000 compounds or so, about 14,000 (4.5%) showed an effect of 50% or more. Effects have a minus sign here. Some of the results follow.
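Also: peak tail current of the secondary pulse compared with the same well before compound.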

The molecules below were run against human ether-à-go-go-related gene (hERG) potassium channel (human, UniProt Q12809) (assay: primary screen, population patch clamp on CHO cells stably expressing hERG).
Chain of human ether-à-go-go-related gene (hERG) potassium channel (Q12809 whole entry, looked up): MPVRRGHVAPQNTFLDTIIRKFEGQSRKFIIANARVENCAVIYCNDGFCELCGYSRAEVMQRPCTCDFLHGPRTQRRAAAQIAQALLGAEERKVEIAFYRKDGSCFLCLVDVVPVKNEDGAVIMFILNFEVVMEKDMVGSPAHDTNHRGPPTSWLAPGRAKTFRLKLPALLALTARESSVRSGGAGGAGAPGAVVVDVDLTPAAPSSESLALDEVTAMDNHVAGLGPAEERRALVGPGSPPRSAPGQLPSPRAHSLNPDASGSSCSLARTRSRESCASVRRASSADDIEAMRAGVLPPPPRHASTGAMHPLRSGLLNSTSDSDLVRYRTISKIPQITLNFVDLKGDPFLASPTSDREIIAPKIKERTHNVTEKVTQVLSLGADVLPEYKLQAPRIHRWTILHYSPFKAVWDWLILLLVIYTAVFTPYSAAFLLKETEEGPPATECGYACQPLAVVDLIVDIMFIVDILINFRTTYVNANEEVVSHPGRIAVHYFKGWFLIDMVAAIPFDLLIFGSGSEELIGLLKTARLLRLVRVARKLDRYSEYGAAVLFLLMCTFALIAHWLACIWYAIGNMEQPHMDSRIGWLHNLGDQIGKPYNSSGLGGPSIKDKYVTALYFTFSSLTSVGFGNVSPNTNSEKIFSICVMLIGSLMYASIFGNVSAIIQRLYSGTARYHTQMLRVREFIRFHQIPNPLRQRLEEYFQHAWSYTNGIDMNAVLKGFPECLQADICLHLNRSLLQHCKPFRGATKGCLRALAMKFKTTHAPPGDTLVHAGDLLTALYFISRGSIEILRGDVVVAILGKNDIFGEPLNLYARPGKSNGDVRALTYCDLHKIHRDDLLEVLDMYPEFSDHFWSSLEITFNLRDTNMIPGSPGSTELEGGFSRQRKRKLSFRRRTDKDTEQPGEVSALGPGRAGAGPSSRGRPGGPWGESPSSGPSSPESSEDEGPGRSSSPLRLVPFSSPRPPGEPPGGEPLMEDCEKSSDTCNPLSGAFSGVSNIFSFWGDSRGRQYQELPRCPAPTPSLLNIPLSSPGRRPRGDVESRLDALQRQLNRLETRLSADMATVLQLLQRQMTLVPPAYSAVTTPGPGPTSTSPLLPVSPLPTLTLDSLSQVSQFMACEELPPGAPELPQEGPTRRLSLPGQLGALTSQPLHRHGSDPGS
For `CC(=O)c1nc(N2C(=O)CC(Cc3ccccc3)C2=O)sc1C` (stereo not drawn), the “hERG current change (%, negative = inhibition) at 10uM” value was -10.2%.
For `COc1cc2c(cc1NC(=O)c1cccc([N+](=O)[O-])c1)oc1ccccc12`, the “hERG current change (%, negative = inhibition) at 10uM” value was 1.9%.
`CN(C)c1ccc(NC(=S)NC(=O)/C=C/c2ccco2)cc1` was tested, and the “hERG current change (%, negative = inhibition) at 10uM” value was 13.8%.
In the case of `CC(=O)Nc1sc2c(c1C#N)CCC2`, the “hERG current change (%, negative = inhibition) at 10uM” value was 4.41%.
With `CCOc1ccc(/C=C/C(=O)c2ccccc2)cc1OC` the “hERG current change (%, negative = inhibition) at 10uM” value was 11.5%.
In the case of `CCOc1ccccc1NC(=O)N1CCCC(c2nc(-c3ccc(C)o3)no2)C1` (stereo not drawn), the “hERG current change (%, negative = inhibition) at 10uM” value was -52.5%.
`CCOC(=O)Nc1cc(C(=O)OCC)c(C)nc1C` was tested, and the “hERG current change (%, negative = inhibition) at 10uM” value was 6.01%.
With `Cc1sc2ncnc(N(C)C3CCCCC3)c2c1C` the “hERG current change (%, negative = inhibition) at 10uM” value was 6.33%.
With `CC(C)CN1CCC(=O)N([C@H](CSc2ccc(Br)cc2)Cc2ccccc2)CC1` the “hERG current change (%, negative = inhibition) at 10uM” value was -43.2%.
`CCN(CC(=O)NCc1cccs1)S(=O)(=O)c1ccc(F)cc1` was tested, and the “hERG current change (%, negative = inhibition) at 10uM” value was -85%.
For `Cc1onc(-c2c(Cl)cccc2Cl)c1C(=O)N1CCN(c2ccccc2F)CC1`, the “hERG current change (%, negative = inhibition) at 10uM” value was 7.58%.
`Cc1cc(C)nc(NS(=O)(=O)c2ccc(NS(=O)(=O)c3ccsc3)cc2)n1` was tested, and the “hERG current change (%, negative = inhibition) at 10uM” value was 4.33%.
In the case of `Cc1oc(-c2ccccc2Cl)nc1CSCC(=O)N1CCCC1`, the “hERG current change (%, negative = inhibition) at 10uM” value was -19.9%.
`COc1ccc(-c2nn(-c3ccccc3F)cc2CNCCn2nc(C)cc2C)cc1` was tested, and the “hERG current change (%, negative = inhibition) at 10uM” value was -50.2%.
In the case of `Cc1cc(O)c(C=O)c2c1C(=O)Oc1c(CO)c(O)c3c(c1O2)C(O)OC3=O` (stereo not drawn), the “hERG current change (%, negative = inhibition) at 10uM” value was 0.355%.
`CCOC(=O)C(NC(=O)CCl)(Nc1ccc(C(O)(C(=O)OCC)C(F)(F)F)cc1)C(F)(F)F` (stereo not drawn) was tested, and the “hERG current change (%, negative = inhibition) at 10uM” value was -1.19%.
In the case of `CCOc1cc(CNn2c(C)nnc2SCC(=O)NC(C)(C)C)ccc1OCC(=O)NC(C)(C)C`, the “hERG current change (%, negative = inhibition) at 10uM” value was 13.2%.
For `O=c1cc(CO)oc(CN2CCN(c3ccccc3)CC2)c1O`, the “hERG current change (%, negative = inhibition) at 10uM” value was 16.9%.
For `O=[N+]([O-])c1cncc([N+](=O)[O-])c1Nc1ccccc1Cl`, the “hERG current change (%, negative = inhibition) at 10uM” value was -32.4%.
With `CCOc1ccc(N2C(=O)CC(N3CCC(NC(=O)Nc4ccccc4)CC3)C2=O)cc1` (stereo not drawn) the “hERG current change (%, negative = inhibition) at 10uM” value was 1.29%.
With `COCCn1ccc2c(OCC(=O)NCc3ccc(C)cc3)cccc2c1=O` the “hERG current change (%, negative = inhibition) at 10uM” value was -22.4%.
In the case of `CC(=O)Nc1ccc(NC(=O)CCn2c(=S)oc3ccccc32)cc1`, the “hERG current change (%, negative = inhibition) at 10uM” value was -1.96%.
In the case of `O=C(Nc1ccc(Oc2c(F)c(F)c(F)c(F)c2F)cc1)OC1CCN2Cc3ccccc3N=C12` (stereo not drawn), the “hERG current change (%, negative = inhibition) at 10uM” value was -7.91%.
For `CCN1C(=O)/C(=C/c2nc3ccccc3c(=O)n2-c2ccc(C)cc2)c2ccccc21`, the “hERG current change (%, negative = inhibition) at 10uM” value was 5.49%.
